This note sets out measurements from the BET-seq Pho4 binding data (Le et al. 2018).

The other results are listed elsewhere or left out. These are noisy estimates, calculated here from bound and input reads.

This assay addresses T1, Pho4 (S. cerevisiae) (UniProt P07270).
T1 sequence: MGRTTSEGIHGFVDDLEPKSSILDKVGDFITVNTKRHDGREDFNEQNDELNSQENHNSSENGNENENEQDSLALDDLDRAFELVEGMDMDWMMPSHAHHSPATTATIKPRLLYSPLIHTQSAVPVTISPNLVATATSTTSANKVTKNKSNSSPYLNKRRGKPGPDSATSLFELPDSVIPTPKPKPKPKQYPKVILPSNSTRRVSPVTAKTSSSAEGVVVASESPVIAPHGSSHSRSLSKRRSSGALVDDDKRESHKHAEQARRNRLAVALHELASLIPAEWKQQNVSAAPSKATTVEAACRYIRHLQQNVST
As to the kind of experiment: relative binding free energy (BET-seq); higher = weaker binding. To be noted: reference: library average.
With GTATTCACGTGCGGGC, the “relative binding free energy” value was found to be 0.25 kcal/mol.

As for TGAGTCACGTGTTCTA, the “relative binding free energy” value came out at 0.28 kcal/mol.

Turning to AGTCGCACGTGGTTAT, the “relative binding free energy” value was -0.17 kcal/mol.

For the sequence GTCTTCACGTGCATGT, the “relative binding free energy” value was determined as 0.29 kcal/mol.

For TGAGGCACGTGTATCG, the “relative binding free energy” value was -0.03 kcal/mol.

With AGTTTCACGTGTTAGC, the “relative binding free energy” value was 0.24 kcal/mol.

Turning to TCAGGCACGTGTGGGG, the “relative binding free energy” value was -0.03 kcal/mol.

In the case of CGGCACACGTGGTGTG, the “relative binding free energy” value is -0.07 kcal/mol.

Consider GATCTCACGTGGGTTT, for which the “relative binding free energy” value was 0.26 kcal/mol.

In the case of GATGTCACGTGGTATG, the “relative binding free energy” value was 0.21 kcal/mol.

As to CTAGTCACGTGTGTTG, the “relative binding free energy” value amounted to 0.06 kcal/mol.

Turning to TCGGCCACGTGTGTGT, the “relative binding free energy” value was -0.13 kcal/mol.

In the case of TATTTCACGTGCATGA, the “relative binding free energy” value was determined as 0.24 kcal/mol.

Consider GTCCGCACGTGTTGGG, for which the “relative binding free energy” value was -0.09 kcal/mol.

As for TGAGACACGTGTGGCG, the “relative binding free energy” value came out at 0.06 kcal/mol.

On to GGGGGCACGTGATGTA, for which the “relative binding free energy” value was -0.01 kcal/mol.

For the sequence CATGTCACGTGGGCAT, the “relative binding free energy” value is -0.01 kcal/mol.

Turning to AAGGTCACGTGCTATT, the “relative binding free energy” value came to 0.11 kcal/mol.

On to CGGGTCACGTGGTCAG, for which the “relative binding free energy” value is -0.11 kcal/mol.

Consider GTTTGCACGTGGAGCT, for which the “relative binding free energy” value was -0.1 kcal/mol.

Consider TTATACACGTGATGGT, for which the “relative binding free energy” value came to 0.16 kcal/mol.

For CTTTTCACGTGTGTAG, the “relative binding free energy” value stood at 0.23 kcal/mol.

With TTTGACACGTGGCAGG, the “relative binding free energy” value is 0 kcal/mol.

As for GAGTTCACGTGATGTT, the “relative binding free energy” value was 0.45 kcal/mol.

On to CTGGGCACGTGTGAGC, for which the “relative binding free energy” value worked out at 0.01 kcal/mol.

In the case of ATTGGCACGTGACATA, the “relative binding free energy” value was determined as 0.04 kcal/mol.

Regarding TGCGGCACGTGCGGTG, the “relative binding free energy” value was -0.22 kcal/mol.

Turning to AGGGCCACGTGTTTAA, the “relative binding free energy” value is -0.12 kcal/mol.

For the sequence GAGCGCACGTGGTTTT, the “relative binding free energy” value was -0.05 kcal/mol.

On to GTTCGCACGTGTGGAG, for which the “relative binding free energy” value stood at 0 kcal/mol.

Turning to TATGTCACGTGCTTTA, the “relative binding free energy” value was found to be 0 kcal/mol.

In the case of TATGCCACGTGTTTTG, the “relative binding free energy” value was -0.02 kcal/mol.

With GGCGGCACGTGGAAAT, the “relative binding free energy” value was 0.25 kcal/mol.

For the sequence GGTTTCACGTGATTAA, the “relative binding free energy” value was determined as 0.38 kcal/mol.

Consider GAGTACACGTGTATAT, for which the “relative binding free energy” value worked out at 0.15 kcal/mol.

With GCTGTCACGTGAGTGT, the “relative binding free energy” value came to 0.23 kcal/mol.

As for CGGGGCACGTGAGCAG, the “relative binding free energy” value stood at 0.15 kcal/mol.

Take GAGAACACGTGAGTGA: the “relative binding free energy” value was 0.44 kcal/mol.

In the case of GATGTCACGTGTATCG, the “relative binding free energy” value was found to be 0.15 kcal/mol.

For GTACGCACGTGATGGT, the “relative binding free energy” value stood at 0.09 kcal/mol.

In the case of AGCCTCACGTGAGGGT, the “relative binding free energy” value worked out at 0.33 kcal/mol.

Consider TCGTACACGTGATGGG, for which the “relative binding free energy” value was 0.22 kcal/mol.

For TGTAGCACGTGGTGAG, the “relative binding free energy” value is -0.08 kcal/mol.

Turning to TATAACACGTGTCGTT, the “relative binding free energy” value is -0.06 kcal/mol.

For the sequence TCTGTCACGTGGGGTT, the “relative binding free energy” value is -0.14 kcal/mol.

For GGTTCCACGTGTGTGA, the “relative binding free energy” value came to 0.18 kcal/mol.

For the sequence TGAATCACGTGCGTTT, the “relative binding free energy” value was 0.11 kcal/mol.

As for GGTTGCACGTGGTACT, the “relative binding free energy” value was -0.04 kcal/mol.

For GTCGTCACGTGTATTA, the “relative binding free energy” value was found to be 0.12 kcal/mol.

Consider AAAAGCACGTGCGGTG, for which the “relative binding free energy” value is -0.08 kcal/mol.

For CGTGGCACGTGTTAAT, the “relative binding free energy” value was determined as 0.01 kcal/mol.

As to AGGATCACGTGTGGTC, the “relative binding free energy” value is 0.2 kcal/mol.

In the case of ATATGCACGTGATTAA, the “relative binding free energy” value worked out at 0.11 kcal/mol.

For the sequence GAATACACGTGTTATT, the “relative binding free energy” value was determined as 0.11 kcal/mol.

GTTATCACGTGAGAAG: the “relative binding free energy” value was 0.42 kcal/mol.

As to GGTGCCACGTGATGTG, the “relative binding free energy” value is -0.01 kcal/mol.

For GTGGTCACGTGGCATA, the “relative binding free energy” value is 0.06 kcal/mol.

For AGTATCACGTGTTTTC, the “relative binding free energy” value came to 0.19 kcal/mol.

On to TGCTGCACGTGGGGTA, for which the “relative binding free energy” value was -0.15 kcal/mol.

Take GGGATCACGTGTGGTT: the “relative binding free energy” value turned out to be 0.27 kcal/mol.

Turning to GAACGCACGTGGTGGT, the “relative binding free energy” value is -0.04 kcal/mol.

For the sequence ACGTGCACGTGTGCGG, the “relative binding free energy” value was -0.05 kcal/mol.

Consider GGGGCCACGTGGTATT, for which the “relative binding free energy” value is 0 kcal/mol.

On to GTGAGCACGTGGTATA, for which the “relative binding free energy” value is -0.15 kcal/mol.

For TGTCGCACGTGGTCTT, the “relative binding free energy” value is -0.23 kcal/mol.

As to CTGTTCACGTGCGTAT, the “relative binding free energy” value turned out to be 0.26 kcal/mol.

In the case of AATCGCACGTGTTATT, the “relative binding free energy” value turned out to be 0 kcal/mol.

For GGTCGCACGTGAAGGA, the “relative binding free energy” value worked out at 0.28 kcal/mol.

For the sequence TGAATCACGTGTACAG, the “relative binding free energy” value is 0.19 kcal/mol.

As to TTGGTCACGTGTGGCG, the “relative binding free energy” value came out at 0.14 kcal/mol.

For GAAATCACGTGGGGAA, the “relative binding free energy” value was 0.15 kcal/mol.

As to ACGGGCACGTGGATGT, the “relative binding free energy” value was -0.13 kcal/mol.

Consider TAGTGCACGTGATCGG, for which the “relative binding free energy” value is 0.04 kcal/mol.

TCATTCACGTGTGAAT: the “relative binding free energy” value was 0.28 kcal/mol.

With TGGATCACGTGGTGCC, the “relative binding free energy” value is 0.19 kcal/mol.

Turning to TTTGTCACGTGGCACT, the “relative binding free energy” value came to 0.04 kcal/mol.

Regarding GGTTGCACGTGAGGGT, the “relative binding free energy” value was found to be 0.37 kcal/mol.

Regarding AGGCGCACGTGGCTGT, the “relative binding free energy” value is -0.2 kcal/mol.

TGGGCCACGTGGGAGC: the “relative binding free energy” value was found to be 0.02 kcal/mol.

For GTAGTCACGTGGGCCT, the “relative binding free energy” value amounted to 0.04 kcal/mol.

As to AATGCCACGTGGGGGA, the “relative binding free energy” value was -0.23 kcal/mol.

For the sequence GTATGCACGTGATCAG, the “relative binding free energy” value stood at 0.09 kcal/mol.

As for GGTAGCACGTGTAGTC, the “relative binding free energy” value came out at 0.04 kcal/mol.

In the case of GGCTCCACGTGGTGGG, the “relative binding free energy” value was -0.11 kcal/mol.

On to AGTCACACGTGATTTT, for which the “relative binding free energy” value was determined as 0.19 kcal/mol.

For the sequence GTGGACACGTGATGGG, the “relative binding free energy” value was found to be 0.14 kcal/mol.

For the sequence TGTGTCACGTGGAACG, the “relative binding free energy” value worked out at 0.08 kcal/mol.

With GCATGCACGTGAGGGA, the “relative binding free energy” value amounted to 0.19 kcal/mol.

As to TTAACCACGTGGGGTG, the “relative binding free energy” value is -0.2 kcal/mol.

Consider AGGGGCACGTGCATTT, for which the “relative binding free energy” value was -0.13 kcal/mol.

On to GACGGCACGTGTTGGC, for which the “relative binding free energy” value turned out to be 0.01 kcal/mol.

For TTGGGCACGTGGTTTG, the “relative binding free energy” value was -0.15 kcal/mol.

On to GAGGGCACGTGCAGCG, for which the “relative binding free energy” value was -0.01 kcal/mol.

As to GTGGACACGTGTGTAC, the “relative binding free energy” value worked out at 0.18 kcal/mol.

As to TCGAGCACGTGTTGGG, the “relative binding free energy” value is -0.02 kcal/mol.

On to TGGGCCACGTGGAGCG, for which the “relative binding free energy” value is -0.18 kcal/mol.

Turning to GATGACACGTGGGGAA, the “relative binding free energy” value turned out to be 0.02 kcal/mol.

Consider GGTTTCACGTGACTGG, for which the “relative binding free energy” value came to 0.39 kcal/mol.

In the case of TAGGTCACGTGTATCT, the “relative binding free energy” value was found to be 0.01 kcal/mol.

For the sequence CGGGTCACGTGGTACG, the “relative binding free energy” value was -0.03 kcal/mol.

Consider GTACGCACGTGTGAAG, for which the “relative binding free energy” value came out at 0.16 kcal/mol.

Consider GAATACACGTGTGTAA, for which the “relative binding free energy” value worked out at 0.27 kcal/mol.

On to TGCTGCACGTGTATGG, for which the “relative binding free energy” value is -0.08 kcal/mol.

For GGTTTCACGTGTAAGC, the “relative binding free energy” value amounted to 0.28 kcal/mol.

On to GGGGTCACGTGAGTCG, for which the “relative binding free energy” value was determined as 0.32 kcal/mol.

For the sequence TGGGTCACGTGTTATT, the “relative binding free energy” value came to 0.18 kcal/mol.

As to TATGTCACGTGTTTGT, the “relative binding free energy” value came to 0.16 kcal/mol.

For the sequence GATGGCACGTGAGTTA, the “relative binding free energy” value is 0.18 kcal/mol.

In the case of TTTCGCACGTGGTGAT, the “relative binding free energy” value was -0.07 kcal/mol.

With TTCGCCACGTGGGTAG, the “relative binding free energy” value was -0.21 kcal/mol.

AGGCGCACGTGAGTAG: the “relative binding free energy” value turned out to be 0.06 kcal/mol.

Take TTTTTCACGTGGAGAA: the “relative binding free energy” value came to 0.35 kcal/mol.

Consider ATATTCACGTGATTCG, for which the “relative binding free energy” value was 0.25 kcal/mol.

On to TGTTTCACGTGCGGCT, for which the “relative binding free energy” value amounted to 0.23 kcal/mol.

As to GACGACACGTGTTGGG, the “relative binding free energy” value stood at 0.15 kcal/mol.
